From the supplement of paper PMC11417369 come the findings set out here.

± gives the standard deviation of the averaged measurements. This is one part of the list.

In the test the test system is PfAP2-EXP AP2 domain (GST-tagged). Description: gcPBM binding intensity (ln(normalized median fluorescence intensity)); higher = stronger DNA binding. In a few lines: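 An Agilent 4 × 180k array of primer-extended double-stranded 36-bp intergenic genomic probes, with negative controls, was incubated for 1 h with GST-tagged P. falciparum DNA-binding domains expressed in E. coli. Alexa488 anti-GST antibody detected bound protein, scanned at 488 nm. Binding intensity is the highest Masliner-normalised natural-log median intensity across replicate spots of either probe orientation.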
With “AAAACATTGTTGAACTGTTTTATTTATAAATATAAG [XGTACX_negctrl_site393]”, the “gcPBM binding intensity (ln)” value was determined as 8.23 ± 0.4.

On to “TTTGTTTAAATTAAATGTACATAAAGAATAATATAT [XGTACX_site5093]”, for which the “gcPBM binding intensity (ln)” value came out at 8.83 ± 0.24. As for “TGCTTTATTATTTATTGTACATGTAAAATGAGAGAG [XGTACX_site2288]”, the “gcPBM binding intensity (ln)” value came out at 8.8 ± 0.35.

Consider “TCGTGTTAAACTTTTACACACAAACTTGCAATAATT [CACACA_site7745]”, for which the “gcPBM binding intensity (ln)” value stood at 8.65 ± 0.27. “TAATAACTACAAAAAAAAAAGAAAAATAGAAAAAGG [CACACA_negctrl_site1102]”: the “gcPBM binding intensity (ln)” value was found to be 8.54 ± 0.66. In the case of “AGAAGGTAAATAATTTACCCATATATATAAATATAT [GTGCAC_negctrl_site631]” it was 8.27 ± 0.43; in that of “AATTATATGAAATAAACACACATATGTAATATTACA [CACACA_site1928]”, 8.56 ± 0.43. Turning to “TTTCTTAAAATGTTATGTACATATTTCGTTTCAAAG [XGTACX_site6102]”, the “gcPBM binding intensity (ln)” value was found to be 8.63 ± 0.41. In the case of “TCTTTTTAATTTATATGTACTTATATTAATTATAAG [XGTACX_site7524]” it was 8.38 ± 0.35; in that of ATATATTTCAAAGGGGTGCAGGCATATTTAAGCAAA, 9.02; in that of “TTAATAAAAGCCCATGCACACCTTAGAAAGTTTTAT [CACACA_site8003]”, 8.43 ± 0.45. The value for “TGAGCTTCAACAATATGTACATAAAATATATTACAT [XGTACX_site4763]” was 8.66 ± 0.33.

Regarding “GTATTATAGTATAATACACACCCAAATATTAAAAAG [CACACA_site7404]”, the “gcPBM binding intensity (ln)” value was 8.81 ± 0.41. In the case of “GAAATAAGTTAAAATAGTACGTAGTGTTCCTTAAGT [XGTACX_site6557]”, the “gcPBM binding intensity (ln)” value was found to be 8.62 ± 0.42. The value for “TAAATAATATCCCTTTGTACGTATTTTTTTTTATTA [XGTACX_site7303]” was 8.65 ± 0.39; that for “CGTTATATATGTATTACATGCAATATATGTACGTAA [TGCATGCA_site274]” was 8.68 ± 0.16.

“TTAAAAATAATATATTGTACACATACTTATTTTAAT [XGTACX_site1348]”: the “gcPBM binding intensity (ln)” value was 8.32 ± 0.4.

As to “TTAGGAAAACAAAAATGTACGCATATATATTATTGA [XGTACX_site8288]”, the “gcPBM binding intensity (ln)” value came out at 8.58 ± 0.3. In the case of “GTTTATTCATCATACGGTACACATAAATAATATATA [XGTACX_site6931]” it was 8.78 ± 0.32. In the case of “AAGACTTCTCCATATACACACACCAACAAATATAAA [CACACA_site2779]” it was 8.82 ± 0.54. In the case of “TTTTTCTTTTGATGTTGTACATATATATCATATAAT [XGTACX_site1189]”, the “gcPBM binding intensity (ln)” value came out at 8.61 ± 0.34.

For the sequence “GTGCATATACAAATATGTACTTAAACGTTTTTTTTT [XGTACX_site7362]”, the “gcPBM binding intensity (ln)” value stood at 8.77 ± 0.14.

“ATTTTTTTTTTTTTTTTTTGGTTTTCTTTAGGAGTT [CACACA_negctrl_site1258]”: the “gcPBM binding intensity (ln)” value came out at 8.13 ± 0.48. The value for “TTCGTTTAAATCAAGTGTACATATTATATATAATAT [XGTACX_site7599]” was 8.67 ± 0.37; that for “GATGAATAAATCAAAGCACACATACACCCACATATA [CACACA_site7986]” was 8.79 ± 0.67; that for “TAATAATAATTATATACACACATGTATATTATATTT [CACACA_site1501]” was 8.16 ± 0.24. As to “ATTTAAATATATTATTGTACATATACCTAATAAGAA [XGTACX_site6655]”, the “gcPBM binding intensity (ln)” value was found to be 8.54 ± 0.26. The value for “ACTCCTATATAAATGAACCATATTCATAATATATAT [CACACA_negctrl_site1636]” was 8.41 ± 0.35; that for “AAATGAAAGAATTAAAGTACATTTATATAATTTTAA [XGTACX_site3540]” was 8.29 ± 0.3. In the case of “AAGAGAAAAACATACACACACAACAAAATATGTATA [CACACA_site2719]”, the “gcPBM binding intensity (ln)” value came out at 8.52 ± 0.6.

Regarding “TGTATAATATATATATGTACTTATGTATAATATTAT [XGTACX_site4328]”, the “gcPBM binding intensity (ln)” value was found to be 8.34 ± 0.35. Turning to “TGCATAAAAGTAAAAACATGCATGCCGTGGTATCTT [TGCATGCA_site664]”, the “gcPBM binding intensity (ln)” value is 9.23 ± 0.4. For “AAGATATCTAAGGAAATTAAACTACCAAAATATATA [TGCATGCA_negctrl_site338]”, the “gcPBM binding intensity (ln)” value stood at 8.39 ± 0.42. The value for “TTTTTATGGATATTTATATTATATTATGATTAAAAA [TGCATGCA_negctrl_site204]” was 8.09 ± 0.4; that for “GACATATAAATATACACACATACGTAAGTATATTAA [CACACA_site1790]” was 8.24 ± 0.39. In the case of “CTTTATAATATTTGTTGTACACAAATATAACATATT [XGTACX_site709]” it was 8.64 ± 0.37. The value for “AATAATACAAAAGTTCAACAAAAAAAAAAAAAAAAT [CACACA_negctrl_site952]” was 8.25 ± 0.64; that for “AATATATTTATAAGCACACACTAATAAACACAGACA [CACACA_site4377]” was 8.88 ± 0.43.

As for “GTACATAATTATTATGCACACATATTTTTATGTATT [CACACA_site8132]”, the “gcPBM binding intensity (ln)” value is 8.47 ± 0.17. The value for “AAATATATATATATATATATATATGTGTGTGTATAT [GTGCAC_negctrl_site1]” was 8.7 ± 0.18; that for “TTTCAAAAGTAATACTGTACTTATTTTTATGATTTA [XGTACX_site4184]” was 8.32 ± 0.29; that for “TTATACATAAATTTTGTACACACAAAAAAAAAAAAG [CACACA_site8374]” was 8.53 ± 0.34. The value for “ACATATATATATATATATATATATATATTACATTTA [CACACA_negctrl_site627]” was 8.91 ± 0.028. The value for “GAATTTTTTTAATGTTGTACTTTTTTTTTTTTTTCT [XGTACX_site648]” was 8.54 ± 0.5; that for “TTTTTGTTAAACAGGGTGCTAATCTGAATTAATATT [GTGCAC_site9908]” was 8.49 ± 0.22. Take “ACATATTTTATTTTTTGTACACATATATTATTTTTT [XGTACX_site6528]”: the “gcPBM binding intensity (ln)” value worked out at 8.99 ± 0.42. In the case of “ATATATATATATTACACACACACAAAAAAAATAAAG [CACACA_site118]” it was 9.54 ± 0.23. In the case of “AATTTACAAATATAATGTACATAATTATATATATAT [XGTACX_site278]”, the “gcPBM binding intensity (ln)” value turned out to be 9.57 ± 0.26. Consider “AAAAAAAAAAAAAATACACACATAAAATAAATAACA [CACACA_site439]”, for which the “gcPBM binding intensity (ln)” value amounted to 8.5 ± 0.61. In the case of “TTTGGTTATATTTAAAAAAGACTAATGAAAATTAAA [XGTACX_negctrl_site526]” it was 8.15 ± 0.4; in that of “CATACCATACATAAAACACACAAAATTTACAGAATA [CACACA_site7451]”, 8.75 ± 0.37; in that of “AATAGTAAAAATCACTGTACGTTTATTTTTAAAATG [XGTACX_site1035]”, 8.34 ± 0.36. In the case of “CCATATACAACCATACGTACATATATATATATATAT [XGTACX_site8193]” it was 10.2 ± 0.2; in that of “TATAATATTATACATAGTACACATCACACATCGCAA [XGTACX_site4650]”, 8.85 ± 0.31. Take “TAGAAAAACATTACGTGTACCAAACATCCTAGCAAC [XGTACX_site4888]”: the “gcPBM binding intensity (ln)” value worked out at 8.62 ± 0.2. For the sequence “ATATTATTTATAGGGTGTACCTTATTATTATAAGAA [XGTACX_site7148]”, the “gcPBM binding intensity (ln)” value is 8.35 ± 0.18.
